From the supplement of paper PMC8728848
The other results are listed elsewhere or left out.

Columns and labels:
Experiment in all cases: glycan array binding signal (z-score within array); higher = stronger binding
Settings in all cases: glycan notation: IUPAC condensed, linker removed
[1] = biological target: Fuc(a1-2)[Gal(a1-3)]Gal(b1-4)[Fuc(a1-3)]Glc
How it was run: (§1)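 Negative Z-scores can be read as non-binding. The Z-score is calculated within each array and then averaged across arrays of one protein sequence at different concentrations or buffers and across linkers. Arrays, 3228 in all, were curated from the Consortium for Functional Glycomics database and kept only where the protein sequence was available.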

[2] = biological target: Fuc(a1-2)[Gal(a1-3)]Gal(b1-4)[Fuc(a1-3)]GlcNAc
How it was run: as §1

[3] = biological target: Fuc(a1-2)[Gal(a1-3)]Gal(b1-4)[Fuc(a1-3)]GlcNAc(b1-3)GalNAc
How it was run: as §1

[4] = biological target: Fuc(a1-2)[Gal(a1-4)]Gal(b1-4)GlcNAc
How it was run: as §1

[5] = biological target: Fuc(a1-2)[GalNAc(a1-3)]Gal
How it was run: as §1

[6] = biological target: Fuc(a1-2)[GalNAc(a1-3)]Gal(b1-3)GalNAc(a1-3)[Fuc(a1-2)]Gal(b1-4)GlcNAc
How it was run: as §1

[7] = biological target: Fuc(a1-2)[GalNAc(a1-3)]Gal(b1-3)GlcNAc
How it was run: as §1

[8] = biological target: Fuc(a1-2)[GalNAc(a1-3)]Gal(b1-3)GlcNAc(b1-2)Man(a1-3)[Fuc(a1-2)[GalNAc(a1-3)]Gal(b1-3)GlcNAc(b1-2)Man(a1-6)]Man(b1-4)GlcNAc(b1-4)GlcNAc
How it was run: as §1

[9] = biological target: Fuc(a1-2)[GalNAc(a1-3)]Gal(b1-3)GlcNAc(b1-2)Man(a1-3)[Fuc(a1-2)[GalNAc(a1-3)]Gal(b1-3)GlcNAc(b1-2)Man(a1-6)]Man(b1-4)GlcNAc(b1-4)[Fuc(a1-6)]GlcNAc
How it was run: as §1

[10] = biological target: Fuc(a1-2)[GalNAc(a1-3)]Gal(b1-3)GlcNAc(b1-3)GalNAc
How it was run: as §1

[11] = biological target: Fuc(a1-2)[GalNAc(a1-3)]Gal(b1-3)GlcNAc(b1-6)GalNAc
How it was run: as §1

[12] = biological target: Fuc(a1-2)[GalNAc(a1-3)]Gal(b1-4)Glc
How it was run: as §1

[13] = biological target: Fuc(a1-2)[GalNAc(a1-3)]Gal(b1-4)GlcNAc
How it was run: as §1

[14] = biological target: Fuc(a1-2)[GalNAc(a1-3)]Gal(b1-4)GlcNAc(b1-2)Man(a1-3)[Fuc(a1-2)[GalNAc(a1-3)]Gal(b1-4)GlcNAc(b1-2)Man(a1-6)]Man(b1-4)GlcNAc(b1-4)GlcNAc
How it was run: as §1

[15] = biological target: Fuc(a1-2)[GalNAc(a1-3)]Gal(b1-4)GlcNAc(b1-2)Man(a1-3)[Fuc(a1-2)[GalNAc(a1-3)]Gal(b1-4)GlcNAc(b1-2)Man(a1-6)]Man(b1-4)GlcNAc(b1-4)[Fuc(a1-6)]GlcNAc
How it was run: as §1

[16] = biological target: Fuc(a1-2)[GalNAc(a1-3)]Gal(b1-4)GlcNAc(b1-3)Gal(b1-4)GlcNAc
How it was run: as §1

[17] = biological target: Fuc(a1-2)[GalNAc(a1-3)]Gal(b1-4)GlcNAc(b1-3)Gal(b1-4)GlcNAc(b1-3)Gal(b1-4)GlcNAc
How it was run: as §1

[18] = biological target: Fuc(a1-2)[GalNAc(a1-3)]Gal(b1-4)GlcNAc(b1-3)GalNAc
How it was run: as §1

[19] = biological target: Fuc(a1-2)[GalNAc(a1-3)]Gal(b1-4)[Fuc(a1-3)]GlcNAc
How it was run: as §1

[20] = biological target: Fuc(a1-2)[GalNAc(a1-3)]Gal(b1-4)[Fuc(a1-3)]GlcNAc(b1-3)GalNAc
How it was run: as §1

[21] = biological target: Fuc(a1-2)[GalNAc(a1-4)]Gal(b1-4)GlcNAc
How it was run: as §1

[22] = biological target: Fuc(a1-2)[GalNAc(b1-3)]Gal
How it was run: as §1

Fuc(a1-3)GlcNAc = biological target: Fuc(a1-3)GlcNAc
How it was run: as §1

[23] = biological target: Fuc(a1-3)[Gal(b1-4)]Glc6S
How it was run: as §1

[24] = biological target: Fuc(a1-3)[Gal(b1-4)]GlcNAc
How it was run: as §1

[25] = biological target: Fuc(a1-3)[Gal(b1-4)]GlcNAc(b1-2)Man
How it was run: as §1

[26] = biological target: Fuc(a1-3)[Gal(b1-4)]GlcNAc(b1-2)Man(a1-3)[Fuc(a1-3)[Gal(b1-4)]GlcNAc(b1-2)Man(a1-6)]Man(b1-4)GlcNAc(b1-4)GlcNAc
How it was run: as §1

[27] = biological target: Fuc(a1-3)[Gal(b1-4)]GlcNAc(b1-2)Man(a1-3)[Fuc(a1-3)[Gal(b1-4)]GlcNAc(b1-2)Man(a1-6)]Man(b1-4)GlcNAc(b1-4)[Fuc(a1-6)]GlcNAc
How it was run: as §1

[28] = biological target: Fuc(a1-3)[Gal(b1-4)]GlcNAc(b1-2)Man(a1-6)[Gal(b1-4)GlcNAc(b1-2)Man(a1-3)]Man(b1-4)GlcNAc(b1-4)GlcNAc
How it was run: as §1

[29] = biological target: Fuc(a1-3)[Gal(b1-4)]GlcNAc(b1-3)Gal(b1-3)[Fuc(a1-4)]GlcNAc
How it was run: as §1

[30] = biological target: Fuc(a1-3)[Gal(b1-4)]GlcNAc(b1-3)GalNAc
How it was run: as §1

[31] = biological target: Fuc(a1-3)[Gal(b1-4)]GlcNAc(b1-4)Gal(b1-4)[Fuc(a1-3)]GlcNAc
How it was run: as §1

[32] = biological target: Fuc(a1-3)[Gal(b1-4)]GlcNAc(b1-4)Gal(b1-4)[Fuc(a1-3)]GlcNAc(b1-4)Gal(b1-4)[Fuc(a1-3)]GlcNAc
How it was run: as §1

[33] = biological target: Fuc(a1-3)[Gal(b1-4)]GlcNAc(b1-6)GalNAc
How it was run: as §1

[34] = biological target: Fuc(a1-3)[Gal(b1-4)]GlcNAc(b1-6)[Gal(b1-3)GlcNAc(b1-3)]Gal(b1-4)Glc
How it was run: as §1

[35] = biological target: Fuc(a1-3)[Gal(b1-4)]GlcNAc(b1-6)[Neu5Ac(a2-3)Gal(b1-3)]GalNAc
How it was run: as §1

[36] = biological target: Fuc(a1-3)[Gal(b1-4)]GlcNAc6S
How it was run: as §1

B1: Gal 8 (Homo sapiens), O00214_1 (protein)
chain: MMLSLNNLQNIIYNPVIPFVGTIPDQLDPGTLIVIRGHVPSDADRFQVDLQNGSSMKPRADVAFHFNPRFKRAGCIVCNTLINEKWGREEITYDTPFKREKSFEIVIMVLKDKFQVAVNGKHTLLYGHRIGPEKIDTLGIYGKVNIHSIGFSFSSDLQSTQASSLELTEISRENVPKSGTPQLRLPFAARLNTPMGPGRTVVVKGEVNANAKSFNVDLLAGKSKDIALHLNPRLNIKAFVRNSFLQESWGEEERNITSFPFSPGMYFEMIIYCDVREFKVAVNGVHSLEYKHRFKELSSIDTLEINGDIHLLEVRSW
glycan array binding signal (z-score) [1]: -0.246
glycan array binding signal (z-score) [2]: -0.143
glycan array binding signal (z-score) [3]: -0.221
glycan array binding signal (z-score) [4]: -0.251
glycan array binding signal (z-score) [5]: -0.207
glycan array binding signal (z-score) [6]: 1.73
glycan array binding signal (z-score) [7]: 2.06
glycan array binding signal (z-score) [8]: 2.08
glycan array binding signal (z-score) [9]: 1.73
glycan array binding signal (z-score) [10]: 0.806
glycan array binding signal (z-score) [11]: 0.449
glycan array binding signal (z-score) [12]: 1.89
glycan array binding signal (z-score) [13]: 1.73
glycan array binding signal (z-score) [14]: 2.14
glycan array binding signal (z-score) [15]: 1.49
glycan array binding signal (z-score) [16]: 2.58
glycan array binding signal (z-score) [17]: 2.31
glycan array binding signal (z-score) [18]: 0.842
glycan array binding signal (z-score) [19]: 0.021
glycan array binding signal (z-score) [20]: 0.009
glycan array binding signal (z-score) [21]: -0.125
glycan array binding signal (z-score) [22]: -0.208
glycan array binding signal (z-score) (Fuc(a1-3)GlcNAc): -0.204
glycan array binding signal (z-score) [23]: -0.163
glycan array binding signal (z-score) [24]: -0.196
glycan array binding signal (z-score) [25]: -0.198
glycan array binding signal (z-score) [26]: -0.192
glycan array binding signal (z-score) [27]: -0.182
glycan array binding signal (z-score) [28]: -0.273
glycan array binding signal (z-score) [29]: -0.074
glycan array binding signal (z-score) [30]: -0.171
glycan array binding signal (z-score) [31]: -0.228
glycan array binding signal (z-score) [32]: -0.181
glycan array binding signal (z-score) [33]: -0.029
glycan array binding signal (z-score) [34]: -0.242
glycan array binding signal (z-score) [35]: -0.149
glycan array binding signal (z-score) [36]: -0.162
